From PubChem BioAssay AID651820 (National Center for Advancing Translational Sciences (NCATS), 2012)
The whole screen tested about 340,000 compounds, of which about 12,000 (3.5%) were called active. The inconclusive results got no clear call from the source; some entries with a clear call stand among them for comparison. Calls follow the shape of the dose curve; as a rule, active = well fitted inhibition curve with a large enough effect; inconclusive = small, poorly fitted or top-dose-only effect, or another doubt; inactive = no such curve, though single readings can be large or run the other way. No potency is given beside an inconclusive call; the fits are too rough.
Potency is read from the fitted curve at half-maximal effect; tags tell the direction and shape of the fitted curve.

Assay: qHTS Assay for Inhibitors of Hepatitis C Virus (HCV)
Details: Huh7.5.1 HCVcc-Cre (HCVcc is cell-culture hepatitis C virus) infection, luciferase reporter, 44 h; series mostly up to 41.8 µM
Summary of the method: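 Compounds are dispensed onto cells plated 4 h earlier at 1,000 per well, with HCVcc-Cre virus (about 0.5 moi) added next. Following 44 h of culture, luminescent signal is measured for 15 sec after 15 min with substrate at room temperature.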
In the case of `Cc1ccc(C)c(-c2cc(C(=O)Nc3nccs3)c3ccccc3n2)c1`, the Potency is reported as inconclusive [inhibitor, partial curve].
In the case of `C/C=C(/C)C(=O)O[C@@H]1c2c(ccc3ccc(=O)oc23)O[C@@H]1C(C)(C)OC(=O)/C(C)=C\C`, the Potency is reported as inconclusive [inhibitor, partial curve].
With `CC(Sc1ccccc1)C(=O)NCC1COc2ccccc2O1` (centres undefined) the Potency was “inactive”.
For `O=C(NC12CC3CC(CC(C3)C1)C2)N1CCN(c2ccccc2)CC1`, the Potency was “inactive”.
For `CSC1=N/C(=C\c2cccnc2)C(=O)N1c1ccccc1`, the Potency was “inactive”.
In the case of `CCn1c(=O)c(C(=O)Nc2ccc(C)cc2)c(O)c2ccccc21`, the Potency is reported as inconclusive [inhibitor, partial curve].
With `Cc1cccnc1NC1(C(F)(F)F)N=C(c2ccccc2)NC1=O` (centres undefined) the Potency was “inactive”.
In the case of `O=C(OCC(=O)N(C1CCCCC1)C1CCCCC1)c1ccc(O)cc1`, the Potency is reported as “inactive”.
In the case of `COCON1C(=O)CN(C(C)=O)C1c1ccc(Cl)cc1Cl` (centres undefined), the Potency is reported as “inactive”.
In the case of `C[C@@H]1CC=C[C@@H]2[C@H]1C(=O)N(Cc1ccccc1)[C@H]2c1ccccc1Br`, the Potency is reported as inconclusive [inhibitor, single point].
For `CCCCn1c(=O)c(C=Nc2ccc(Cl)cc2)c(O)n(Cc2ccco2)c1=O`, the Potency was “inactive”.
For `Cn1c(COc2ccccc2)nnc1SCC(=O)c1cccc([N+](=O)[O-])c1`, the Potency was inconclusive [inhibitor, partial curve].
With `CCc1cccc(C)c1NC(=O)CSc1nnc(-c2cc3cc(Br)ccc3o2)n1CC` the Potency was inconclusive [inhibitor, full curve, poor fit].
For `N#CCc1c(C#N)c(N)nc(N2CCN(S(=O)(=O)c3ccccc3F)CC2)c1C#N`, the Potency was inconclusive [inhibitor, single point].
For `Cc1ccc(CNC(=O)C2CCN(S(=O)(=O)c3ccc4c(c3)CC(C)N4C(=O)C3CC3)CC2)cc1` (centres undefined), the Potency was inconclusive [inhibitor, single point].
For `COc1ccc(C2Nc3ccccc3C(=O)N2NS(=O)(=O)c2ccccc2)cc1OC` (centres undefined), the Potency was inconclusive [inhibitor, full curve].
In the case of `COc1cc(C(=O)Nc2oc(-c3ccccc3)c(-c3ccccc3)c2C#N)cc(OC)c1OC`, the Potency is reported as inconclusive [inhibitor, partial curve].
With `CC(=O)c1cccc(NC(=O)Cn2cnc(S(=O)(=O)N3CCOCC3)c2)c1` the Potency was “inactive”.
In the case of `COc1ccc(Cl)cc1C(=O)OCC(=O)N(CC(C)C)c1c(N)n(Cc2ccccc2)c(=O)[nH]c1=O`, the Potency is reported as inconclusive [inhibitor, partial curve, poor fit].
For `Cc1oc2ncnc(N)c2c1C`, the Potency was “inactive”.
With `COc1ccc(NC(=O)c2ccc(NC(=O)CN3CCN(c4ccc(O)cc4)CC3)cc2)cc1` the Potency was inconclusive [inhibitor, partial curve].
With `COc1ccc(/C=N\NC(=O)c2ccc([N+](=O)[O-])c(C)c2)cc1COc1ccccc1C(N)=O` the Potency was inconclusive [inhibitor, single point].
In the case of `CC(C)(C)NCC(O)c1cc(O)cc(O)c1` (centres undefined), the Potency is reported as “inactive”.
With `O=C1Nc2ccccc2C12OCC(COc1ccc(Cl)cc1)O2` (centres undefined) the Potency was active: 12.6 µM.
In the case of `CCOc1ccccc1CNCc1ccc(C(=O)O)cc1`, the Potency is reported as inconclusive [inhibitor, single point].
For `Cc1cccc(C)c1OCC(=O)Nc1ccc2c(c1)OCCO2`, the Potency was “inactive”.
With `CC(CNS(=O)(=O)c1ccc2c(c1)NC(=O)CCS2)c1ccccc1` (centres undefined) the Potency was inconclusive [inhibitor, single point].
For `O=C(Nc1ccccc1N1CCCC1)c1ccc2c(c1)OCO2`, the Potency was inconclusive [inhibitor, partial curve, poor fit].
With `COc1ccc2oc(C(=O)NC(C)c3ccccn3)c(C)c2c1` (centres undefined) the Potency was “inactive”.
In the case of `Cc1ccccc1OCC(=O)N/N=C/c1ccc(Sc2nc3ccccc3s2)o1`, the Potency is reported as inconclusive [inhibitor, single point].
In the case of `COc1ccc(/C=N/NC(=O)c2nnn(-c3nonc3N)c2CN(C)c2ccccc2)cc1`, the Potency is reported as inconclusive [inhibitor, single point].
In the case of `CC(C)(C)c1csc(NC(=O)c2ccc(Cl)s2)n1`, the Potency is reported as active: 8.91 µM.
In the case of `O=C(CCc1nc2sc3c(c2c(=O)[nH]1)CCCC3)NCC(=O)Nc1ccccc1Br`, the Potency is reported as “inactive”.
For `CCOc1ccc(CCNC(=O)Cn2nc(C)c3c(C)n(-c4ccccc4)nc3c2=O)cc1`, the Potency was inconclusive [inhibitor, full curve, poor fit].
In the case of `COc1ccc(CCN2CC(C(=O)Nc3ccccc3F)CC2=O)cc1OC` (centres undefined), the Potency is reported as inconclusive [inhibitor, single point].
With `CN1CCN(NC(=S)Nc2ccc(Oc3ccccc3)cc2)CC1` the Potency was inconclusive [inhibitor, partial curve].
For `Cn1c(SCC(=O)N/N=C/c2ccco2)nc2ccccc21`, the Potency was “inactive”.
With `O=C1C(Cc2ccccc2)Nc2ncnc(N3CCN(c4ccccc4)CC3)c2N1Cc1ccc(Cl)cc1` (centres undefined) the Potency was inconclusive [inhibitor, partial curve].
With `Cc1ccc(NC(=O)CN(C)C(=O)COc2ccc(C(=O)c3ccc(F)cc3)cc2)cc1` the Potency was inconclusive [inhibitor, single point].
In the case of `COc1ccc(OCC(=O)Nc2ccc3c(c2)nc(CN2CCCC2)n3C)cc1`, the Potency is reported as inconclusive [inhibitor, single point].
For `CCCn1c(=O)c(C(=O)NC(C)c2ccccc2)c(O)c2ccccc21` (centres undefined), the Potency was inconclusive [inhibitor, single point].
For `Cc1ccc(-c2nn(CC(=O)NC(C)c3ccccc3)c(=O)c3ccccc23)cc1` (centres undefined), the Potency was inconclusive [inhibitor, single point].
With `Cc1ccc(NC(=O)C(C)SCc2nc3sc4c(c3c(=O)[nH]2)CCCC4)nc1` (centres undefined) the Potency was “inactive”.
In the case of `CCOC(=O)N1CCN(S(=O)(=O)c2ccc(C(=O)N(CCCN(C)C)c3nc4c(F)cc(F)cc4s3)cc2)CC1`, the Potency is reported as inconclusive [inhibitor, partial curve].
